Measured values reported in PubChem BioAssay AID588855 (National Center for Advancing Translational Sciences (NCATS), 2011).
Screen size: about 410,000 compounds; about 5,000 (1.2%) were called active. Inconclusive results, whose numbers are uncertain, are shown with a selection of clear calls. Calls come from the whole dose curve; as a rule, active = well fitted inhibition curve with a large enough effect; inconclusive = small, poorly fitted or top-dose-only effect; inactive = no such curve, though single readings can be large or run the other way. Potencies beside an inconclusive call are fits to weak or partial responses and may not hold up.

experiment: qHTS for Inhibitors of TGF-b; details: HepG2 CAGA-GFP TGF-b/SMAD3 reporter, GFP fluorescence, 18 h, TGF-beta stimulated, 500 pg/mL final; series mostly up to 46.1 µM; activity, negative = inhibition: at the top concentration; note: nearly all actives have a fitted effect of over 65% in size
Procedure, shortened: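 HEPG2 CAGA-GFP, 1000 cells/well; 2 h settle, 37 C; cpd via pin tool; TGF-b 500 pg/mL final; 18 h, 37 C; GFP imaging ex488/em500-530; %Activity normalised to -TGF-b and +DMSO controls; CRC fit, curve class.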
% is set by controls: 0 for no effect and ±100 for the full control effect; potency is the fitted concentration of half-maximal effect; tags give direction and shape of the fitted curve.

Compound	Potency	activity, negative = inhibition
COc1ccc(-n2cc(CN[C@H]3CCCCNC3=O)c(-c3cccc(F)c3)n2)cc1	inconclusive: 25.1 µM [inhibitor, single point]	
Cc1oc2ncn(CC(C)C)c(=O)c2c1C(=O)N(Cc1ccccc1)C(C)C	inconclusive: 0.708 µM [inhibitor, full curve]	
CCOc1ccc(NC(=O)CNc2cccc(S(=O)(=O)N3CCCCCC3)c2)cc1OCC	inconclusive: 20 µM [inhibitor, single point]	
CC1Cn2cc(C(=O)Nc3ccccc3C(F)(F)F)c(=O)c3c(Cl)ccc(c32)O1 (stereo unspecified)		inactive: -1.71%
O=C(NCC(c1ccc2c(c1)OCO2)N1CCN(c2ccccc2)CC1)c1ccccc1 (stereo unspecified)	inconclusive: 35.5 µM [inhibitor, single point]	
COC(=O)c1[nH]c2ccc(Cl)cc2c1NC(=O)CN1CCc2cc(OC)c(OC)cc2C1	inconclusive: 15.8 µM [inhibitor, partial curve, poor fit]	
COc1cc(OC)c(OC)cc1/C=C1\Oc2cc(OCC(=O)N3Cc4ccccc4C[C@H]3C(=O)O)ccc2C1=O		inactive: 4.76%
Cc1ccc(S(=O)(=O)N2CCn3cccc3C2C)cc1 (stereo unspecified)	inconclusive: 1.78 µM [inhibitor, partial curve, poor fit]	
CCCS/C(N)=N/N=C/c1cc(C)ccc1O	inconclusive: 35.5 µM [inhibitor, single point]	
O=C(c1ccc(Cl)c(Cl)c1)N1CCC(=O)N(C(COCc2cccc(C(F)(F)F)c2)Cc2ccccc2)CC1 (stereo unspecified)	inconclusive: 35.5 µM [inhibitor, single point]	
CC(C)(C)OC(=O)N(CCc1ccccc1)Cc1ccccc1OCc1ccc(NC(=O)C2CCC2)cc1		inactive: -25.6%
CCOC(=O)c1nnn(CC(=O)NC(=O)Nc2ccc(F)cc2)c1C(=O)OCC	inconclusive: 35.5 µM [inhibitor, single point]	
O=C(O)CCCCCCCCc1cn(CCc2c[nH]c3ccccc23)nn1	inconclusive: 20 µM [inhibitor, single point]	
CCOc1ccc(OCC)c(NC(=O)CN(C)S(=O)(=O)c2ccc3nc(C)sc3c2)c1	inconclusive: 35.5 µM [inhibitor, single point]	
COc1ccc(-n2c(Cc3cccn3C)nnc2SCC(=O)Nc2ccc(C)c(Cl)c2)cc1	inconclusive: 12.6 µM [inhibitor, single point]	
CCN1C(=O)c2ccc(C(=O)Nc3ncc(C)s3)cc2C1=O	inconclusive: 31.6 µM [inhibitor, single point]	
O=[N+]([O-])c1ccc2nc(-c3ccccc3)cc(-c3ccccc3)c2c1	inconclusive: 35.5 µM [inhibitor, partial curve, poor fit]	
O=C(NCCCN1CCCC1=O)C1CCN(S(=O)(=O)c2cc(C(F)(F)F)ccc2Cl)CC1		inactive: 7.68%
COCCNC(=O)c1ccc(CS(=O)(=O)c2ccc(OC)cc2)o1		inactive: -0.359%
O=C(COc1ccc(S(=O)(=O)N2CCCC2)cc1Cl)NC1CC1	inconclusive: 2.51 µM [inhibitor, full curve, poor fit]	
COc1ccc(Nc2ncnc3c2nc2n3CCCC2)cc1Cl	inconclusive: 7.08 µM [inhibitor, partial curve, poor fit]	
O=C(NCC(c1cccnc1)N1CCc2ccccc21)C(=O)Nc1ccccc1F (stereo unspecified)	inconclusive: 11.2 µM [inhibitor, partial curve]	

Compound	Potency	activity, negative = inhibition
CCCCNC(=O)C1(C)CCN1Cc1cccc2c(OC)cc(C(=O)OCC)cc12 (stereo unspecified)	inconclusive: 11.2 µM [inhibitor, single point]	
CCOc1cc(C)c(C(C)C)cc1S(=O)(=O)n1ccnc1CC	inconclusive: 5.62 µM [inhibitor, full curve, poor fit]	
CCCCNC(=O)c1onc(CSc2ccc(Cl)cc2)c1C(=O)NCCCC	inconclusive: 20 µM [inhibitor, partial curve, poor fit]	
CCOc1ccc(NC(=O)C2CCN(S(=O)(=O)c3ccc4c(c3)oc(=O)n4C)CC2)cc1	inconclusive: 3.16 µM [inhibitor, full curve]	
COc1cc(C(=O)NCC(c2cccs2)N2CCc3ccccc32)cc(OC)c1OC (stereo unspecified)	inconclusive: 20 µM [inhibitor, single point]	
O=C(NNC(=S)NC(=O)c1cccs1)c1ccc(NC(=O)c2ccccc2)cc1		inactive: -21.8%
Cc1ccc(CNc2nc(C)nc3sc4c(c23)CCC4)cc1	inconclusive: 0.251 µM [inhibitor, full curve, poor fit]	
Cc1cc(S(=O)(=O)N2CCOCC2)ccc1OCC(=O)N1CCCCC1	inconclusive: 35.5 µM [inhibitor, single point]	
CC(C)[C@H](NC(=O)c1ccccc1F)C(=O)OCC(=O)Nc1sccc1C(N)=O	inconclusive: 35.5 µM [inhibitor, single point]	
Nc1nc2c(F)cccc2s1		inactive: -5.69%
CCC(Oc1cc(Cl)ccc1Cl)C(=O)NN1C(=O)C2C3CCC(C3=C(C)C)C2C1=O (stereo unspecified)	inconclusive: 2.82 µM [inhibitor, full curve, poor fit]	
Cc1n(N)c2ccccc2[n+]1CC(=O)c1ccccc1		inactive: -0.1%
Cc1ccccc1Cn1c(=O)n(CCCCC(=O)NCc2ccccc2Cl)c(=O)c2ccccc21		inactive: -4.43%
Cc1n[nH]c(=O)c2c(NC(=O)CSc3nn(-c4ccccc4)c(=S)s3)oc(C)c12	inconclusive: 14.1 µM [inhibitor, partial curve, poor fit]	
CCOC(=O)C1CCCN(C(=O)CS(=O)(=O)Cc2ccccc2)C1 (stereo unspecified)	inconclusive: 35.5 µM [inhibitor, single point]	
CCC1(C)NC(c2ccc3c(c2)OCO3)=CC(c2ccccc2O)N1 (stereo unspecified)		inactive: -9.85%
COc1ccc(/C=N/NC(=O)c2ccn[nH]2)cc1COc1ccc(F)cc1		inactive: -24.9%
CC(C)(C)S(=O)(=O)N1C[C@H]2CC/C=C\C/C=C\2[C@@H]1CCO		inactive: 3.23%
c1ccc2c(c1)ncn2-c1ccc(-c2ccnc3ncnn23)cc1	inconclusive: 5.62 µM [inhibitor, partial curve, poor fit]	
CC1CCCN(CC(O)COCC2COc3ccccc3O2)C1 (stereo unspecified)	inconclusive: 12.6 µM [inhibitor, single point]	
O=C(C[n+]1cc(-c2ccc(Cl)c(Cl)c2)n2c1CCC2)N1c2ccccc2Sc2ccccc21	inconclusive: 6.31 µM [inhibitor, single point]	
Cc1ccccc1OCC(=O)NNC(=S)NC(=O)c1ccccc1[N+](=O)[O-]		inactive: 0%

Compound	Potency	activity, negative = inhibition
COc1ccc(-c2ccc(S(=O)(=O)NCC3CCCO3)cc2)cc1 (stereo unspecified)		inactive: 7.26%
Cc1ccc(NC(=O)C2CCN(C(=O)c3cnn(-c4ccccc4)c3-n3cccc3)CC2)cc1	active: 11.2 µM	
O=C(Nc1ccccc1N1CCN(C(=O)c2ccccc2)CC1)c1ccccc1Cl	inconclusive: 35.5 µM [inhibitor, single point]	
CC(C)(C)Nc1nc(NN)nc(NC(C)(C)C)n1	inconclusive: 35.5 µM [inhibitor, single point]	
COc1ccc(S(=O)(=O)N2CCCC2C(=O)Nc2nc3c(s2)CCCC3)cc1 (stereo unspecified)	inconclusive: 25.1 µM [inhibitor, single point]	
CCCc1nnc(NC(=O)CSc2nc3ccccc3[nH]2)s1		inactive: -19.1%
CC(=O)Nc1cccc(NC(=O)Nc2cccc(F)c2)c1	inconclusive: 3.16 µM [inhibitor, single point]	
O=C(Nc1ccccc1N1CCN(C(=O)c2ccc(Cl)cc2)CC1)c1ccc(Br)cc1		inactive: 4.63%
COc1ccc(Cl)cc1NC(=O)Cn1nc(C(F)(F)F)c2c1CCC2	inconclusive: 10 µM [inhibitor, partial curve]	
O=C(Nc1ccc(Br)cc1F)c1cccnc1		inactive: -2.96%
CC1(C(=O)Nc2c(F)c(F)c(F)c(F)c2F)CC1(Br)Br (stereo unspecified)	inconclusive: 35.5 µM [inhibitor, single point]	
CCOc1ccc(-n2cc(C(=O)c3cc(Cl)ccc3O)cc(C#N)c2=O)cc1	active: 12.6 µM	
CC[C@@H]1CC=C[C@H]2[C@H]1C(=O)N(Cc1ccccc1)[C@H]2c1ccc(C(F)(F)F)cc1	inconclusive: 17.8 µM [inhibitor, partial curve]	
O=C1/C(=C\c2ccc(-c3ccccc3[N+](=O)[O-])o2)C(c2ccccc2)=NN1c1ccccc1		inactive: -16.9%
Cc1ccc(NCN2C(=O)C(=O)c3ccccc32)nc1	active: 6.31 µM	
CC(=O)Nc1ccc(OCC(=O)N(CC(C)C)C2CCS(=O)(=O)C2)cc1 (stereo unspecified)	inconclusive: 25.1 µM [inhibitor, single point]	
CN(C)CCCNc1nc2cc(-c3cccc(C(F)(F)F)c3)sc2c(=O)n1C	inconclusive: 31.6 µM [inhibitor, single point]	
Cc1ccc(C2CC(=O)C(C=NCCN3CCN(C(=S)Nc4ccc(F)cc4)CC3)=C(O)C2)cc1 (stereo unspecified)		inactive: -0.792%
Cc1nc2c(OCc3cc(Cl)cc(Cl)c3)cccn2c1N(C)C(=O)CCC1CCCC1	inconclusive: 25.1 µM [inhibitor, single point]	
COc1ccc2[nH]c3c(c2c1)CCN1C(=O)C(CC(=O)NCC24CC5CC(CC(C5)C2)C4)C[C@H](C(=O)N2CCCCC2)[C@@]31C (stereo partly specified)	inconclusive: 25.1 µM [inhibitor, single point]	
Cc1ccc2c(c1)-c1c(cnn1CC(=O)N(Cc1ccco1)C1CCCCC1)CO2	inconclusive: 22.4 µM [inhibitor, single point]	
O=C(Nc1cccc(-c2nc3ccccc3[nH]2)c1)c1c(F)cccc1F	inconclusive: 35.5 µM [inhibitor, single point]	
